This is an account of results in patent US11685745B2, “Substituted benzoxazole and benzofuran compounds as PDE7 inhibitors” (Dart NeuroScience, LLC, priority 2017, dated 2023).

This experiment addresses N-terminal truncated recombinant human PDE7B enzyme (Homo sapiens (Human), UniProt Q9NP56). In words: biochemical.
Turning to `Cc1cc(C)n(CCCN(C)Cc2cc3cc(Cl)c4c(c3o2)C2(CCCCC2)NC(=O)N4)n1` [Example 551, 5′-Chloro-2′-({[3-(3,5-dimethyl-1H-pyrazol-1-yl)propyl](methyl)amino}methyl)-7′,8′-dihydro-6′H-spiro[cyclohexane-1,9′-furo[2,3-f]quinazoline]-7′-one], the IC50 (commonly the concentration that gives 50% inhibition) was in the range of 10 to 100 nM. Then `CC1(C)CN(Cc2cc3cc(Cl)c4c(c3o2)C2(CCCCC2)NC(=O)N4)CCO1` [Example 552, 5′-Chloro-2′-[(2,2-dimethylmorpholin-4-yl)methyl]-7′,8′-dihydro-6′H-spiro[cyclohexane-1,9′-furo[2,3-f]quinazoline]-7′-one], with 10 to 100 nM.

On to `CCN1CCN(Cc2cc3cc(Cl)c4c(c3o2)C2(CCCCC2)NC(=O)N4)CC1` [Example 553, 5′-Chloro-2′-[(4-ethylpiperazin-1-yl)methyl]-7′,8′-dihydro-6′H-spiro[cyclohexane-1,9′-furo[2,3-f]quinazoline]-7′-one], for which the IC50 lay in the range of 100 to 1000 nM. In the case of `CCc1cc(CN(C)Cc2cc3cc(Cl)c4c(c3o2)C2(CCCCC2)NC(=O)N4)on1` [Example 554, 5′-Chloro-2′-({[(3-ethyl-1,2-oxazol-5-yl)methyl](methyl)amino}methyl)-7′,8′-dihydro-6′H-spiro[cyclohexane-1,9′-furo[2,3-f]quinazoline]-7′-one], the IC50 lay within 100 to 1000 nM. On to `CN(Cc1ccccn1)Cc1cc2cc(Cl)c3c(c2o1)C1(CCCCC1)NC(=O)N3` [Example 555, 5′-Chloro-2′-{[methyl(pyridin-2-ylmethyl)amino]methyl}-7′,8′-dihydro-6′H-spiro[cyclohexane-1,9′-furo[2,3-f]quinazoline]-7′-one], for which the IC50 fell in the range of 100 to 1000 nM.

Regarding `NC(=O)C1CCN(Cc2cc3cc(Cl)c4c(c3o2)C2(CCCCC2)NC(=O)N4)CC1` [Example 556, 1-{5′-Chloro-7′-oxo-7′,8′-dihydro-6′H-spiro[cyclohexane-1,9′-furo[2,3-f]quinazoline]-2′-ylmethyl}piperidine-4-carboxamide], the IC50 lay within 100 to 1000 nM. Take `CCOCC1(CNCc2cc3cc(Cl)c4c(c3o2)C2(CCCCC2)NC(=O)N4)CC1` [Example 558, 5′-Chloro-2′-[({[1-(ethoxymethyl)cyclopropyl]methyl}amino)methyl]-7′,8′-dihydro-6′H-spiro[cyclohexane-1,9′-furo[2,3-f]quinazoline]-7′-one]: the IC50 was in the range of 100 to 1000 nM.

Take `Cc1noc(C)c1CCN(C)Cc1cc2cc(Cl)c3c(c2o1)C1(CCCCC1)NC(=O)N3` [Example 559, 5′-Chloro-2′-({[2-(dimethyl-1,2-oxazol-4-yl)ethyl](methyl)amino}methyl)-7′,8′-dihydro-6′H-spiro[cyclohexane-1,9′-furo[2,3-f]quinazoline]-7′-one]: the IC50 is 10 to 100 nM. As for `CC(=O)NC1CCN(Cc2cc3cc(Cl)c4c(c3o2)C2(CCCCC2)NC(=O)N4)CC1` [Example 560, N-(1-{5′-Chloro-7′-oxo-7′,8′-dihydro-6′H-spiro[cyclohexane-1,9′-furo[2,3-f]quinazoline]-2′-ylmethyl}piperidin-4-yl)acetamide], the figure is 100 to 1000 nM; as for `O=C1Nc2c(Cl)cc3cc(CN4CCCCC4CO)oc3c2C2(CCCCC2)N1` (centres unmarked) [Example 561, 5′-Chloro-2′-{[2-(hydroxymethyl)piperidin-1-yl]methyl}-7′,8′-dihydro-6′H-spiro[cyclohexane-1,9′-furo[2,3-f]quinazoline]-7′-one], 100 to 1000 nM; as for `Cn1ccnc1CNCc1cc2cc(Cl)c3c(c2o1)C1(CCCCC1)NC(=O)N3` [Example 564, 5′-Chloro-2′-({[(1-methyl-1H-imidazol-2-yl)methyl]amino}methyl)-7′,8′-dihydro-6′H-spiro[cyclohexane-1,9′-furo[2,3-f]quinazoline]-7′-one], 10 to 100 nM. Take `O=C1Nc2c(Cl)cc3cc(CN4CCCC(CO)C4)oc3c2C2(CCCCC2)N1` (centres unmarked) [Example 565, 5′-Chloro-2′-{[3-(hydroxymethyl)piperidin-1-yl]methyl}-7′,8′-dihydro-6′H-spiro[cyclohexane-1,9′-furo[2,3-f]quinazoline]-7′-one]: the IC50 was 100 to 1000 nM.

Take `CCCN(CCO)Cc1cc2cc(Cl)c3c(c2o1)C1(CCCCC1)NC(=O)N3` [Example 566, 5′-Chloro-2′-{[(2-hydroxyethyl)(propyl)amino]methyl}-7′,8′-dihydro-6′H-spiro[cyclohexane-1,9′-furo[2,3-f]quinazoline]-7′-one]: the IC50 lay in the range of 100 to 1000 nM. Regarding `CCOC(=O)CN(C)Cc1cc2cc(Cl)c3c(c2o1)C1(CCCCC1)NC(=O)N3` [Example 567, Ethyl 2-({5′-chloro-7′-oxo-7′,8′-dihydro-6′H-spiro[cyclohexane-1,9′-furo[2,3-f]quinazoline]-2′-ylmethyl}(methyl)amino)acetate], the IC50 is 100 to 1000 nM. Then `NC1CCN(Cc2cc3cc(Cl)c4c(c3o2)C2(CCCCC2)NC(=O)N4)C1` (centres unmarked) [Example 568, 2′-[(3-Aminopyrrolidin-1-yl)methyl]-5′-chloro-7′,8′-dihydro-6′H-spiro[cyclohexane-1,9′-furo[2,3-f]quinazoline]-7′-one], with 100 to 1000 nM. Consider `CC(=O)NCCNCc1cc2cc(Cl)c3c(c2o1)C1(CCCCC1)NC(=O)N3` [Example 569, N-[2-({5′-Chloro-7′-oxo-7′,8′-dihydro-6′H-spiro[cyclohexane-1,9′-furo[2,3-f]quinazoline]-2′-ylmethyl}amino)ethyl]acetamide], for which the IC50 lay within 10 to 100 nM.

As to `O=C1Nc2c(Cl)cc3cc(CN4CCC(CO)CC4)oc3c2C2(CCCCC2)N1` [Example 570, 5′-Chloro-2′-{[4-(hydroxymethyl)piperidin-1-yl]methyl}-7′,8′-dihydro-6′H-spiro[cyclohexane-1,9′-furo[2,3-f]quinazoline]-7′-one], the IC50 lay within 100 to 1000 nM. With `O=C1Nc2c(Cl)cc3cc(CNC4CCCNC4)oc3c2C2(CCCCC2)N1` (centres unmarked) [Example 571, 5′-Chloro-2′-{[(piperidin-3-yl)amino]methyl}-7′,8′-dihydro-6′H-spiro[cyclohexane-1,9′-furo[2,3-f]quinazoline]-7′-one], the IC50 lay within 100 to 1000 nM.

`O=C1Nc2c(Cl)cc3cc(CNC4CCNC4)oc3c2C2(CCCCC2)N1` (centres unmarked) [Example 572, 5′-Chloro-2′-{[(pyrrolidin-3-yl)amino]methyl}-7′,8′-dihydro-6′H-spiro[cyclohexane-1,9′-furo[2,3-f]quinazoline]-7′-one]: the IC50 lay within 100 to 1000 nM.

Turning to `O=C1Nc2c(Cl)cc3cc(C(=O)c4ccncc4)oc3c2C2(CCCCC2)N1` [Example 574, 5′-Chloro-2′-(pyridine-4-carbonyl)-7′,8′-dihydro-6′H-spiro[cyclohexane-1,9′-furo[2,3-f]quinazoline]-7′-one], the 50% inhibitory concentration (IC50) lay in the range of 100 to 1000 nM.

On to `CC(=O)c1cc2cc(Cl)c3c(c2o1)C1(CCCCC1)NC(=O)N3` [Example 575, 2′-Acetyl-5′-chloro-7′,8′-dihydro-6′H-spiro[cyclohexane-1,9′-furo[2,3-f]quinazoline]-7′-one], for which the IC50 is 10 to 100 nM. With `O=C1Nc2c(Cl)cc3cc(CNC4CCOCC4F)oc3c2C2(CCCCC2)N1` (centres unmarked) [Example 577, 5′-Chloro-2′-{[(3-fluorooxan-4-yl)amino]methyl}-7′,8′-dihydro-6′H-spiro[cyclohexane-1,9′-furo[2,3-f]quinazoline]-7′-one], the IC50 fell in the range of 10 to 100 nM. For the compound `O=C1Nc2c(Cl)cc3cc(CN[C@@H]4CCOC4)oc3c2C2(CCCCC2)N1` [Example 578, 5′-Chloro-2′-({[(3R)-oxolan-3-yl]amino}methyl)-7′,8′-dihydro-6′H-spiro[cyclohexane-1,9′-furo[2,3-f]quinazoline]-7′-one], the IC50 was in the range of 10 to 100 nM. As for `O=C1Nc2c(Cl)cc3cc(CN[C@H]4CCOC4)oc3c2C2(CCCCC2)N1` [Example 579, 5′-Chloro-2′-({[(3S)-oxolan-3-yl]amino}methyl)-7′,8′-dihydro-6′H-spiro[cyclohexane-1,9′-furo[2,3-f]quinazoline]-7′-one], the figure is 10 to 100 nM.

With `COCCNCc1cc2cc(Cl)c3c(c2o1)C1(CCCCC1)NC(=O)N3` [Example 582, 5′-Chloro-2′-{[(2-methoxyethyl)amino]methyl}-7′,8′-dihydro-6′H-spiro[cyclohexane-1,9′-furo[2,3-f]quinazoline]-7′-one], the concentration for half-maximal inhibition (IC50) lay in the range of 100 to 1000 nM. As for `O=C1Nc2c(Cl)cc3cc(CNC4COC4)oc3c2C2(CCCCC2)N1` [Example 583, 5′-Chloro-2′-{[(oxetan-3-yl)amino]methyl}-7′,8′-dihydro-6′H-spiro[cyclohexane-1,9′-furo[2,3-f]quinazoline]-7′-one], the IC50 is 10 to 100 nM.
